Results: the supplement of paper PMC8728848
The other results are listed elsewhere or left out.

Experiments:
Experiment in all cases: glycan array binding signal (z-score within array); higher = stronger binding
Conditions in all cases: glycan notation: IUPAC condensed, linker removed
[1] = target: Fuc(a1-3)[Gal3S(b1-4)]GlcNAc6S
Method in brief: (§1)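 Negative Z-scores can be read as non-binding. The Z-score is calculated within each array and then averaged across arrays of one protein sequence at different concentrations or buffers and across linkers. Arrays, 3228 in all, were curated from the Consortium for Functional Glycomics database and kept only where the protein sequence was available.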

[2] = target: Fuc(a1-3)[GalNAc(b1-4)]GlcNAc
Method in brief: as §1

[3] = target: Fuc(a1-3)[GalNAc(b1-4)]GlcNAc6S
Method in brief: as §1

Fuc(a1-4)GlcNAc = target: Fuc(a1-4)GlcNAc
Method in brief: as §1

Fuc(b1-3)GlcNAc = target: Fuc(b1-3)GlcNAc
Method in brief: as §1

Gal(a1-2)Gal = target: Gal(a1-2)Gal
Method in brief: as §1

Gal(a1-3)Gal = target: Gal(a1-3)Gal
Method in brief: as §1

Gal(a1-3)Gal(b1-3)GlcNAc = target: Gal(a1-3)Gal(b1-3)GlcNAc
Method in brief: as §1

[4] = target: Gal(a1-3)Gal(b1-3)GlcNAc(b1-2)Man
Method in brief: as §1

[5] = target: Gal(a1-3)Gal(b1-3)GlcNAc(b1-2)Man(a1-3)[Gal(a1-3)Gal(b1-3)GlcNAc(b1-2)Man(a1-6)]Man(b1-4)GlcNAc(b1-4)GlcNAc
Method in brief: as §1

[6] = target: Gal(a1-3)Gal(b1-3)GlcNAc(b1-3)GalNAc
Method in brief: as §1

[7] = target: Gal(a1-3)Gal(b1-3)GlcNAc(b1-6)GalNAc
Method in brief: as §1

[8] = target: Gal(a1-3)Gal(b1-3)[Fuc(a1-4)]GlcNAc(b1-2)Man(a1-3)[Gal(a1-3)Gal(b1-3)[Fuc(a1-4)]GlcNAc(b1-2)Man(a1-6)]Man(b1-4)GlcNAc(b1-4)GlcNAc
Method in brief: as §1

Gal(a1-3)Gal(b1-4)Glc = target: Gal(a1-3)Gal(b1-4)Glc
Method in brief: as §1

Gal(a1-3)Gal(b1-4)GlcNAc = target: Gal(a1-3)Gal(b1-4)GlcNAc
Method in brief: as §1

[9] = target: Gal(a1-3)Gal(b1-4)GlcNAc(b1-2)Man
Method in brief: as §1

[10] = target: Gal(a1-3)Gal(b1-4)GlcNAc(b1-2)Man(a1-3)[Gal(a1-3)Gal(b1-4)GlcNAc(b1-2)Man(a1-6)]Man(b1-4)GlcNAc(b1-4)GlcNAc
Method in brief: as §1

[11] = target: Gal(a1-3)Gal(b1-4)GlcNAc(b1-3)GalNAc
Method in brief: as §1

[12] = target: Gal(a1-3)Gal(b1-4)GlcNAc(b1-6)GalNAc
Method in brief: as §1

[13] = target: Gal(a1-3)Gal(b1-4)[Fuc(a1-3)]GlcNAc
Method in brief: as §1

[14] = target: Gal(a1-3)Gal(b1-4)[Fuc(a1-3)]GlcNAc(b1-2)Man(a1-3)[Gal(a1-3)Gal(b1-4)[Fuc(a1-3)]GlcNAc(b1-2)Man(a1-6)]Man(b1-4)GlcNAc(b1-4)GlcNAc
Method in brief: as §1

Gal(a1-3)GalNAc = target: Gal(a1-3)GalNAc
Method in brief: as §1

[15] = target: Gal(a1-3)[Gal(a1-4)]Gal(b1-4)GlcNAc
Method in brief: as §1

[16] = target: Gal(a1-4)Gal(b1-3)GlcNAc(b1-2)Man(a1-3)[Gal(a1-4)Gal(b1-3)GlcNAc(b1-2)Man(a1-6)]Man(b1-4)GlcNAc(b1-4)GlcNAc
Method in brief: as §1

Gal(a1-4)Gal(b1-4)Glc = target: Gal(a1-4)Gal(b1-4)Glc
Method in brief: as §1

Gal(a1-4)Gal(b1-4)GlcNAc = target: Gal(a1-4)Gal(b1-4)GlcNAc
Method in brief: as §1

[17] = target: Gal(a1-4)Gal(b1-4)GlcNAc(b1-2)Man(a1-3)[Gal(a1-4)Gal(b1-4)GlcNAc(b1-2)Man(a1-6)]Man(b1-4)GlcNAc(b1-4)GlcNAc
Method in brief: as §1

[18] = target: Gal(a1-4)Gal(b1-4)GlcNAc(b1-3)Gal(b1-4)Glc
Method in brief: as §1

Gal(a1-4)GlcNAc = target: Gal(a1-4)GlcNAc
Method in brief: as §1

Gal(a1-6)Glc = target: Gal(a1-6)Glc
Method in brief: as §1

Gal(b1-2)Gal = target: Gal(b1-2)Gal
Method in brief: as §1

Gal(b1-3)Gal = target: Gal(b1-3)Gal
Method in brief: as §1

Gal(b1-3)Gal(b1-4)GlcNAc = target: Gal(b1-3)Gal(b1-4)GlcNAc
Method in brief: as §1

Gal(b1-3)GalNAc = target: Gal(b1-3)GalNAc
Method in brief: as §1

[19] = target: Gal(b1-3)GalNAc(a1-3)[Fuc(a1-2)]Gal(b1-4)Glc
Method in brief: as §1

[20] = target: Gal(b1-3)GalNAc(a1-3)[Fuc(a1-2)]Gal(b1-4)GlcNAc
Method in brief: as §1

Gal(b1-3)GalNAc(b1-3)Gal = target: Gal(b1-3)GalNAc(b1-3)Gal
Method in brief: as §1

B1: PX9937D-bvu-500-26-500 (Bacteroides vulgatus) (protein)
chain: DPVSDITDLNYWKTPEQFDSFVFGLHSRFRSHSWNMFLLGEARSDVFGGIPFGGEATQGMERFPYNTLNAENPGISGFGDLYQNINQMNLFISRTLHTDVLTESARNYYLGQVYGLRAYYMYQLYRSWGDVVFTEEPSLGFEVGKLAKAATPAAEIFEQVKKDIESSLSYFGSDYTIKEKKSLWSKAATLMLKADVYLWSAHRDGGEGDARTAKNALVDIQNNISRSNLDLMDTYQGVFAYDNKGNKEIIFTIHNELFEYNLWNGNNDLFPQADYLGKFYNADGTLINTSVENNFGIMRLMVKLENFKKFLPGDTRRDVTLKDVYNKVENGKLELVGVYPHKYWGVMNGSTRVRCDDYPIYRYSDLLLMLAEAKVLLGEDPATEINRVRRRAFGDAYDASTVGFPNQEVDKRPADAVLQERLFEFMLEGKRWYDLRRFGDSYVLDYTPAEPARLLWPINQGALTNNPLLKQTVGY
glycan array binding signal (z-score) [1]: 0.002 | glycan array binding signal (z-score) [2]: 0.015 | glycan array binding signal (z-score) [3]: -0.222 | glycan array binding signal (z-score) (Fuc(a1-4)GlcNAc): -0.443 | glycan array binding signal (z-score) (Fuc(b1-3)GlcNAc): -0.499 | glycan array binding signal (z-score) (Gal(a1-2)Gal): -0.519 | glycan array binding signal (z-score) (Gal(a1-3)Gal): -0.287 | glycan array binding signal (z-score) (Gal(a1-3)Gal(b1-3)GlcNAc): 0.353 | glycan array binding signal (z-score) [4]: 4.49 | glycan array binding signal (z-score) [5]: 0.166 | glycan array binding signal (z-score) [6]: -0.65 | glycan array binding signal (z-score) [7]: -0.681 | glycan array binding signal (z-score) [8]: 0.78 | glycan array binding signal (z-score) (Gal(a1-3)Gal(b1-4)Glc): -0.457 | glycan array binding signal (z-score) (Gal(a1-3)Gal(b1-4)GlcNAc): -0.573 | glycan array binding signal (z-score) [9]: -0.058 | glycan array binding signal (z-score) [10]: -0.145 | glycan array binding signal (z-score) [11]: -0.404 | glycan array binding signal (z-score) [12]: 1.21 | glycan array binding signal (z-score) [13]: -0.427 | glycan array binding signal (z-score) [14]: 0.656 | glycan array binding signal (z-score) (Gal(a1-3)GalNAc): -0.426 | glycan array binding signal (z-score) [15]: 2.38 | glycan array binding signal (z-score) [16]: -0.769 | glycan array binding signal (z-score) (Gal(a1-4)Gal(b1-4)Glc): -0.13 | glycan array binding signal (z-score) (Gal(a1-4)Gal(b1-4)GlcNAc): -0.06 | glycan array binding signal (z-score) [17]: 9.96 | glycan array binding signal (z-score) [18]: 0.006 | glycan array binding signal (z-score) (Gal(a1-4)GlcNAc): -0.369 | glycan array binding signal (z-score) (Gal(a1-6)Glc): 0.278 | glycan array binding signal (z-score) (Gal(b1-2)Gal): -0.134 | glycan array binding signal (z-score) (Gal(b1-3)Gal): 0.039 | glycan array binding signal (z-score) (Gal(b1-3)Gal(b1-4)GlcNAc): -0.412 | glycan array binding signal (z-score) (Gal(b1-3)GalNAc): -0.281 | glycan array binding signal (z-score) [19]: -0.139 | glycan array binding signal (z-score) [20]: -0.372 | glycan array binding signal (z-score) (Gal(b1-3)GalNAc(b1-3)Gal): 0.096
